The whole screen tested about 150,000 compounds, of which about 540 (0.36%) showed an effect of 50% or more. The list shows a part of the results.
test system: Plasmodium falciparum; experiment: Primary screen in NF54 nanoGlo assay, in single point, at 2uM, 72h; a lower Z score goes with more inhibition; format: functional, Erythrocyte; details: timepoint 72 hour

SMILES | % Inhibition [%] | Z score
Cc1nc(N2CCOCC2)c2c(C(=O)N3CCN(c4cccc(Cl)c4)CC3)c(C)oc2n1 | -3 | 0.6
Nc1c(Cl)cc(Cc2noc([C@H]3CCCOC3)n2)cc1Cl | -5 | 0.63
Cc1ccc([C@H](C)NC(=O)[C@H]2CC[C@@H](O)CC2)cn1 | -2 | 0.37
Cc1c(Br)ccc(F)c1C(=O)N1CCn2ncnc2C1 | 3 | -0.34
Cc1cc(C)n(C)c(=O)c1C(=O)N1C[C@@H]2CC[C@H]1CN(Cc1ccccc1)C2 | 1 | -0.08
O=C(NCc1cccs1)N1CCOCC1CC(O)c1ccccc1 (stereo not given) | 4 | -0.7
Cc1cccc(-n2nc(C)c3sc(N4CCCN(C(=O)c5cc(F)ccc5F)CC4)nc32)c1 | -5 | 0.84
CCN1C(=O)CN(C(=O)c2cccnc2)CC12CCOCC2 | -5 | 0.7
Cc1cccnc1NC(=O)C(F)(F)[C@@]1(F)OC(F)(F)C(F)(F)C1(F)F | -28 | 3.29
CN(C[C@H]1COc2ccccc2O1)C(=O)c1cccc(-n2ccnc2)c1 | -10 | 0.94
NC(=O)c1cnc2n1CCN(C(=O)c1cnn3ccccc13)C2 | 1 | -0.23
O=C(NCc1ccc(F)cc1)[C@@]1(CCO)CCN(Cc2ccccc2)C1 | -7 | 1.4
O=C1OC2(CCN(S(=O)(=O)c3c(F)cccc3F)CC2)c2ccccc21 | -2 | 0.46
O=C(Cc1ccc(-c2ccccc2)cc1)N[C@@H]1COC2(CCNCC2)C1 | 5 | -0.67
CC(C)c1ccc(NC(=O)N2CCC(C3CCOC3)C2)cc1F (stereo not given) | -9 | 1.25
CN(Cc1ccccn1)C(=O)[C@@H]1CC(c2cc(F)ccc2F)=NO1 | -2 | 0.22
CN(Cc1ccco1)c1ccc(-c2nc(-c3ccc(F)cc3)no2)cn1 | 5 | -0.59
CC(=O)N1CCC([C@@H]2CN(C(=O)c3cccc(C)n3)C[C@H]2COc2ccccc2)CC1 | -3 | 0.3
CN(C[C@H]1CC(=O)N(C(C)(C)C)C1)c1ncnc2[nH]ccc12 | -4 | 0.62
Fc1ccccc1[C@@H]1C=C(c2ccncc2)Nc2nc(C(F)(F)F)nn21 | 14 | -1.67
Cn1cc(S(=O)(=O)N2CCCCCC2)cc1C(=O)Nc1ccc2c(c1)OCCO2 | -1 | 0.09
Cc1cc(C)nc(NCCC(=O)Nc2ccccn2)n1 | 2 | -0.25

SMILES | % Inhibition [%] | Z score
CC(C)S(=O)(=O)CC(=O)NCCOc1ccc(C(C)(C)C)cc1 | -20 | 1.81
Nc1c2c(nn1[C@H]1CCS(=O)(=O)C1)CCCC2 | 15 | -1.95
CCC(CC)C(=O)NC(C)C(O)Cc1ccccc1 (stereo not given) | -1 | 0.09
CC(C)C(=O)N1CCN(c2cc(-n3ccnc3)ncn2)CC1 | -14 | 1.9
COC1CCC(CC(=O)Nc2cc(-c3nnn[nH]3)ccc2F)CC1 (stereo not given) | -5 | 0.62
Cc1nc(N2CCC(C)CC2)ncc1-c1cc(=O)[nH]c(NCc2ccccc2)n1 | 36 | -4.7
CC[C@H](NS(=O)(=O)Cc1cc(F)ccc1Cl)C1CC(O)C1 (stereo not given in full) | -8 | 1.02
Cc1cc(C(=O)NCCn2c(C)cnc2-c2cccnc2)nn1C | 7 | -1.33
CCC(=O)Nc1ccc2c(c1)CN(C(=O)COc1ccccc1)[C@H](C(=O)N1CCCC1)C2 | -5 | 0.76
O=C(Nc1ccccc1)OC1CS(=O)(=O)CC1OC(=O)Nc1ccccc1 (stereo not given) | 6 | -0.79
CCC(O)C1CCCCN1CCS(=O)(=O)C(C)C (stereo not given) | -6 | 0.84
Cc1nnc(N2CCN(CC(F)(F)F)C[C@H](C)C2)nc1C | -7 | 0.87
O=C1CCc2cc(NC(=O)[C@@H]3CC=CCC3)ccc2N1 | -7 | 1.09
Cc1ccc(NC(=O)CS(=O)(=O)CCC(F)(F)F)c(C)c1 | -7 | 1.18
Cc1nc(CN2CC[C@@H](C(=O)O)c3ccccc32)sc1C | -2 | 0.21
CCO[C@H]1COC[C@@H]1NC(=O)c1ccn(C)c1C | -20 | 2.51
CCO[C@H]1C[C@H](NC(=O)Nc2ccnnc2)C1 | -5 | 0.75
Cc1n[nH]c(C(=O)NCC[C@H]2CCC3(CCC3)O2)c1O | 3 | -0.54
CCCn1cc(CN/C(=N\c2ccc(OCC)cc2)NC(=O)c2ccc3c(c2)OCO3)c(C)n1 | -7 | 1.24
CC(=O)N[C@H](c1nc(CC(C)C)n[nH]1)C(C)C | 8 | -1.04
CC(C)(C)c1ccc(OCc2n[nH]c(C3(CO)CC3)n2)cc1 | 13 | -1.77
CN(C)C(=O)CNc1c(Cl)cccc1Cl | -15 | 1.31

SMILES | % Inhibition [%] | Z score
CC(C)C[C@]1(CO)CCCN1C(=O)NCC(C)(C)c1cccs1 | -7 | 1.19
Cc1cc(C)nc(-c2cccc(C(=O)N(C)C[C@H]3COc4ccccc4O3)c2)c1 | -1 | 0.14
Cc1ccc(NC(=O)c2cc(CN3CCCC3)on2)c(Cl)c1 | -5 | 0.88
CN(C)C(=O)NC1CCC(=O)NC1C1CCCO1 (stereo not given) | -10 | 1.17
Cc1cccc(NC(=O)C(=O)N2CC[C@H](O)[C@@H](O)C2)c1C | 0 | -0.07
Cc1nnc(NC(=O)[C@H]2CCCN(C(=O)c3cccs3)C2)s1 | 3 | -0.35
Cc1nnc(COC(=O)c2ccc3noc(-c4ccccc4)c3c2)o1 | -13 | 2.11
c1ccc(C2=NN(c3ccccc3)[C@H](c3cccc4nccnc34)C2)cc1 | 0 | 0.06
COc1ccc2[nH]cc(C(=O)N[C@H]3COCC[C@@H]3O)c(=O)c2c1 | -6 | 0.97
Cc1ccc(CCC(=O)N[C@@]2(CCO)CCOC2)s1 | 6 | -0.77
O=C(NCC(=O)N1CCN(c2nccn3nc4c(c23)CCCC4)CC1)OCc1ccccc1 | 4 | -0.52
O=C(Nc1ccc(-c2ccccn2)cn1)c1cncc(O)c1 | -14 | 1.29
CN1C(=O)C[C@@H](C#N)[C@@H]1c1cnn(Cc2ccccc2)c1 | 25 | -2.87
COc1ccc(Cc2nc(-c3ccc4c(c3)[nH]c(=O)n4C(C)C)no2)cc1 | -1 | 0.23
COC(=O)C1(NC(=O)[C@H]2CCCO2)CCC1 | -18 | 2.62
Cc1c(C(=O)N2CCNC(=O)C2)sc2ncnc(NCc3cc4ccccc4s3)c12 | -14 | 1.58
Cc1nc2c([nH]1)CN(C(=O)COC(C)C)CC2 | 8 | -1.49
C[C@@H](CN(C)CCO)NCc1cccc(F)c1 | -6 | 1.09
CO[C@H]1CCOC[C@@H]1NC(=O)c1ncc(F)cc1F | 0 | -0.03
O=C(Cc1cccc(Br)c1)N[C@H]1CCCNC1 | -4 | 0.44
O=C(NCc1cc(F)cc(F)c1)c1nn[nH]c1Nc1ccccc1F | -6 | 0.72
C[C@H]1CN(CC(=O)NCCc2ccc(F)cc2)CC[C@]1(O)C1CC1 | -11 | 1.46

SMILES | % Inhibition [%] | Z score
CCNC(=O)[C@H](C)NC(=O)OCc1ccc(Cl)cc1 | -2 | 0.33
CC(=O)N1CCN(Cc2nc(-c3ccc4c(c3)CC(=O)N4C)c(C)s2)CC1 | 26 | -3.74
Cc1cc(CC(=O)N[C@@](C)(CC(=O)O)c2ccc(F)cc2)no1 | 11 | -1.42
C[C@H]1c2nncn2CCN1C(=O)c1ccc2scnc2c1 | 0 | 0.02
O=S(=O)(c1ccc2nc(N3CCN(Cc4ccc5c(c4)OCO5)CC3)cnc2c1)N1CCCCC1 | -7 | 1.21
Cc1ccnc(N(C)[C@H]2CCN(c3ccccc3)C2=O)n1 | -5 | 0.68
O=C(c1cc(-c2ccccc2)on1)N1CCc2[nH]cnc2C1 | -1 | 0.26
Cc1nc(N2CCC(N3CCc4ccccc4C3)CC2)c2cnn(C)c2n1 | -2 | 0.48
CCC(=O)N1CCC[C@@](NCc2c(C)nn(C)c2C)(c2nnnn2C2CCCC2)C1 | -19 | 2.49
CCN(C(C)=O)c1nc(CN2CCC[C@H]2c2cnn(C)c2)cs1 | 11 | -2.05
Cn1cc(CN(CCO)C(=O)c2ccc3nc(-c4ccccc4)cn3c2)cn1 | -10 | 1.55
Cc1c[nH]c(CNS(=O)(=O)N2CCCC2)c(C)c1=O | -2 | 0.28
CC(C)Oc1ccc([C@@H](O)CNC(=O)C(C)(C)C)cc1 | -4 | 0.58
COc1ccc2nnc(CNC(=O)c3cnc(C)cn3)n2n1 | 23 | -2.92
COc1cccc(NC(=O)NC2CS(=O)(=O)C2)n1 | -4 | 0.89
CC1=NN(C2CCS(=O)(=O)C2)C(=O)C1C(=O)c1cn(C)c2ccccc12 (stereo not given) | 6 | -1.18
Cn1nc(-c2ccc(Cl)cc2)c2cc(C(=O)O)sc21 | -8 | 1.34
Cc1c(Cl)ccc2c1N(C(=O)c1ccn(C)c(=O)c1)CCC2 | 6 | -0.69
Cc1ccc2c(=O)n(CC3(Cn4cccn4)CC3)cnc2c1C | -18 | 1.61

From ChEMBL document CHEMBL4888484, “Replenishing the malaria drug discovery pipeline: Screening and hit evaluation of the MMV Hit Generation Library 1 (HGL1) against asexual blood stage Plasmodium falciparum ,using a nano luciferase reporter read-out” (2022)
